From PubChem BioAssay AID624417 (National Center for Advancing Translational Sciences (NCATS), 2012)
The whole screen tested about 410,000 compounds, of which about 6,400 (1.6%) were called active. This list was built around the results that the source calls inconclusive (neither active nor inactive); the mix of calls is not that of the screen. Calls come from the whole dose curve; as a rule, active = well fitted inhibition curve with a large enough effect; inconclusive = small, poorly fitted or top-dose-only effect; inactive = no such curve, though single readings can be large or run the other way. No potency is given beside an inconclusive call; the fits are too rough.

Target: Glucagon-like peptide 1 receptor (Homo sapiens) (UniProt P43220)
Chain of UniProt P43220 (P43220 whole entry, looked up): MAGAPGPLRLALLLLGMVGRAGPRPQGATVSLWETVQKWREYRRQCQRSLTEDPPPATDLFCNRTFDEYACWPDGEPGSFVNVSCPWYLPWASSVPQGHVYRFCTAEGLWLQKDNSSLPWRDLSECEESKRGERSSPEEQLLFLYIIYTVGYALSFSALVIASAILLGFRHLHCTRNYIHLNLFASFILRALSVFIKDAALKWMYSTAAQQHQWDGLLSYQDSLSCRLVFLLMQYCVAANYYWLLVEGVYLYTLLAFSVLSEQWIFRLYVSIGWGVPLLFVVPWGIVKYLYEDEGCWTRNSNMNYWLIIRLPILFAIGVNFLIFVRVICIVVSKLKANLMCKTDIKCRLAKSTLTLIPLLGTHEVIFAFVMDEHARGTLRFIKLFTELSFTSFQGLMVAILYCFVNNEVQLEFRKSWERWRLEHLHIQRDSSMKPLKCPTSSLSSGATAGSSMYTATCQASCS
Assay: qHTS of GLP-1 Receptor Inverse Agonists (Inhibition Mode); note: nearly all actives have a fitted effect of over 55% in size
Conditions: HEK293 GLP-1R CRE-luciferase, luminescence, 24 h, GLP-1R form is constitutively active; activity change, negative = inhibition: at 38.3 µM (top of the series) unless noted
In short: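 HEK293 cells stably co-expressing constitutively active GLP-1R and a cAMP-responsive luciferase reporter were seeded in DMEM with 10% Nu serum, given compounds after 12 h, and incubated 24 h at 37 deg C. Luminescence was then read.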
% is set by controls: 0 for no effect and ±100 for the full control effect; potency is the fitted concentration of half-maximal effect; tags give direction and shape of the fitted curve.

**Q.** For `COc1ccc(CN2C[C@@H](CO)O[C@@H](n3cnc4c(NCc5ccc(F)cc5)ncnc43)C2)cc1`, which “activity change, negative = inhibition” value is on record?
**A.** inactive: -9.97%

**Q.** Which “activity change, negative = inhibition” value does the source give for `COc1ccc2[nH]c3c(c2c1)CNCC3` here?
**A.** inactive: -13.7%

**Q.** With `O=C(NC1=NCCS1)C1COc2ccccc2O1` (centres undefined) as the compound, how does the Potency read?
**A.** inconclusive [inhibitor, full curve, poor fit]

**Q.** How did the Potency turn out when `O=[N+]([O-])c1ccccc1-c1ccc(CN2CCN(c3ccccc3)CC2)o1` was run?
**A.** inconclusive [inhibitor, single point]

**Q.** `CN(c1ccc(OCC(=O)N2CCCC2)cc1)S(=O)(=O)c1ccc(Cl)cc1` was tested. Which Potency did it give?
**A.** inconclusive [inhibitor, partial curve, poor fit]

**Q.** `O=C(Cn1ncc(Cl)c(Cl)c1=O)NCC1CCCCC1` was tested. Which Potency did it give?
**A.** inconclusive [inhibitor, single point]

**Q.** `CCOCC(=O)Nc1cc(C(F)(F)F)ccc1Oc1cccc(Br)c1` was tested. Which Potency did it give?
**A.** inconclusive [inhibitor, partial curve, poor fit]

**Q.** With `O=S(=O)(c1ccc(F)cc1)n1ccc(-c2cnc(-c3ccccc3)s2)n1` as the compound, how does the Potency read?
**A.** inconclusive [inhibitor, single point]

**Q.** Which “activity change, negative = inhibition” value does the source give for `O/N=C1\CCCc2ccccc21` here?
**A.** inactive: 0.688%

**Q.** `O=C(NCC(c1ccco1)N1CCN(c2ccccc2)CC1)C(=O)NC1CCCC1` (centres undefined) was tested. Which “activity change, negative = inhibition” value did it give?
**A.** inactive: -3.89%

**Q.** For `Cc1ccc2c(c1)c(=O)c(C(=O)c1ccncc1)cn2CC(=O)Nc1ccc(C(C)C)cc1`, which “activity change, negative = inhibition” value is on record?
**A.** inactive: 17.7%

**Q.** `N#Cc1c(C(F)(F)F)cc(-c2ccc(Cl)c(Cl)c2)nc1SCCN1CCOCC1` was tested. Which Potency did it give?
**A.** inconclusive [inhibitor, single point]

**Q.** How did the Potency turn out when `CC(C)Sc1nc(N2CCOCC2)c2c3c(sc2n1)COC(C)(C)C3` was run?
**A.** inconclusive [inhibitor, single point]

**Q.** Which Potency does the source give for `N#CC1(NC(=O)Cn2ncc(Cl)c(Cl)c2=O)CCCCC1` here?
**A.** inconclusive [inhibitor, single point]

**Q.** How did the Potency turn out when `O=C(C1CCN(S(=O)(=O)c2ccccc2)CC1)N(CCc1ccccc1)Cc1ccco1` was run?
**A.** inconclusive [inhibitor, partial curve, poor fit]

**Q.** Which Potency does the source give for `O=C(C1CC1)N1N=C(c2ccccc2)CC1(O)C(F)(F)C(F)(F)F` (centres undefined) here?
**A.** inconclusive [inhibitor, single point]

**Q.** With `Cc1cccc(OP(=O)(Nc2c(C)n(C)n(-c3ccccc3)c2=O)Oc2cccc(C)c2)c1` as the compound, how does the Potency read?
**A.** inconclusive [inhibitor, single point]

**Q.** Which Potency does the source give for `CC(C)n1c(COc2ccccc2)nc2ccccc21` here?
**A.** inconclusive [inhibitor, partial curve, poor fit]

**Q.** How did the Potency turn out when `CC(C)(C)NC(=O)Cn1c(=O)oc2cc(S(=O)(=O)N3CCc4ccccc43)ccc21` was run?
**A.** inconclusive [inhibitor, single point]
